In PubChem BioAssay AID360 (National Center for Advancing Translational Sciences (NCATS), 2006):
Out of some 48,000 compounds screened, about 550 (1.1%) were called active. About 4% were inconclusive and are not listed. Cut-off read from the data, not from the text of the source: active = potency below about 15 µM; inconclusive = mostly about 16 µM to 33 µM; inactive = weaker than that. The list shows a part of the results.

What follows are molecules tested against Lysosomal acid glucosylceramidase (Homo sapiens) (UniProt P04062) (assay: Glucocerebrosidase). Details: purified enzyme, resorufin glucoside fluorescence (screen aimed at inhibitors), 20 min.
UniProt P04062, sequence (P04062 whole entry, looked up): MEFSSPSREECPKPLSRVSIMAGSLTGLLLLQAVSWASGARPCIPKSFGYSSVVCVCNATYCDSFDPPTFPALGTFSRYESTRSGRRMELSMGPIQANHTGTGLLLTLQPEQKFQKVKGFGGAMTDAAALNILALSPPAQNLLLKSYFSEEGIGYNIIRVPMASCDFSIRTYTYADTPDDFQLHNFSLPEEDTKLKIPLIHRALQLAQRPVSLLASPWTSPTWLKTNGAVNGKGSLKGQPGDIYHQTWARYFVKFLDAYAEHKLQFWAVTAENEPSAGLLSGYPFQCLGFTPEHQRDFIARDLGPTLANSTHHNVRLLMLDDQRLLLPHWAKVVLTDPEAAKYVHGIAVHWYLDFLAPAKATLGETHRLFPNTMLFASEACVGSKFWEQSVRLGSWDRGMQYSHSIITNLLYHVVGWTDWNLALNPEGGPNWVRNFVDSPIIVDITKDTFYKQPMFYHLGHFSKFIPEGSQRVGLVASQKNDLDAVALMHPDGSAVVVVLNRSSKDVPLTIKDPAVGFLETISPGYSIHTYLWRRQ
Summary of the method: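 Wild-type enzyme at 0.2 nM final in 50mM citric acid/KH2PO4, 10mM sodium taurocholate, 0.01% tween-20, pH 5.9, with resorufin beta-D-glucopyranoside at 30 uM final. Compounds titrated, 20 min at RT, red fluorescence read; AC50 from titration.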
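Note: the screen sought inhibitors.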
Potency is the fitted concentration of half-maximal effect.

Potency, inactive:
CCCSc1nc(N)cc(=O)[nH]1, Cc1cc(S(=O)(=O)Nc2c(C(=O)O)[nH]c3ccccc23)ccc1F > 76.9 µM, COC(=O)c1cc(Br)c(=O)n(Cc2ccc(C(=O)O)cc2)c1 > 76.9 µM, COc1ccc(N2CCN(C(=O)c3ccc(N4C(=O)NC5CC4(C)Oc4ccccc45)cc3)CC2)cc1 (centres undefined) > 76.9 µM, CCCCCc1nnc(NC(=O)CS(=O)(=O)Cc2ccccc2)s1 > 76.9 µM, O=S(=O)(Nc1ccc(O)c(CN2CCCCC2)c1)c1ccccc1 > 76.9 µM, COC(=O)C1=C(N)Oc2cc(C)n(CC3CCCO3)c(=O)c2C1c1ccc(Cl)cc1 (centres undefined) > 76.9 µM, CN(Cc1ccccc1)Cc1c(F)cccc1F > 76.9 µM, CC(C)c1ccccc1N=C1SCCN1C1CCS(=O)(=O)C1 (centres undefined) > 76.9 µM, O=C(Cn1nc(-c2ccccc2)ccc1=O)NCC1COCCO1 (centres undefined) > 76.9 µM, O=C(c1cccc(Cl)c1Cl)N1CCN(c2ccccn2)CC1 > 76.9 µM, O=C(c1ccco1)N1CCN(S(=O)(=O)Cc2ccc(Cl)cc2)CC1 > 76.9 µM, CCOc1ccc(-n2cc(C(=O)N3CCN(C)CC3)c3cc(OC)c(OC)cc3c2=O)cc1 > 76.9 µM, CCCCC(=O)NC(Nc1cc(C)ccn1)(C(=O)OCC)C(F)(F)F (centres undefined) > 76.9 µM, COc1ccccc1N1CCN(S(=O)(=O)c2ccccc2)CC1 > 76.9 µM, COc1ccc(CC(=O)NC(C)c2nnc(SCc3nc4ccccc4c(=O)[nH]3)n2C)cc1 (centres undefined) > 76.9 µM, Cc1cc(SCC(=O)OCC(=O)N2CCN(C(=O)c3ccco3)CC2)c(C)cc1Br > 76.9 µM, CN/C=C1\C(=O)C(C)(C)Oc2ccc3ccc(=O)oc3c21 > 76.9 µM, CCCCCCC(c1c(C)n(C)n(-c2ccccc2)c1=O)c1c(C)n(C)n(-c2ccccc2)c1=O > 76.9 µM, O=C(c1ccc(S(=O)(=O)N2CCC(c3nc4ccccc4s3)CC2)cc1)N1CCOCC1 > 76.9 µM, COc1ccc(Cl)cc1S(=O)(=O)N1CCN(C(=O)c2cc(OC)c(OC)c(OC)c2)CC1 > 76.9 µM, O=C(Nc1ccccc1)N1CC=C(c2ccccc2)CC1 > 76.9 µM, COc1ccc(F)cc1S(=O)(=O)Nc1ccc2c(c1)OCO2 > 76.9 µM, Cc1cc(Nc2ccccc2)nn1C(=O)c1ccccc1 > 76.9 µM, O=C(NC1CCCC1)C(c1cccs1)N(C(=O)c1ccno1)c1ccccc1 (centres undefined) > 76.9 µM, Cc1cc(NC(=O)Cn2cc(C(F)(F)F)cc(Cl)c2=O)no1 > 76.9 µM, CCOc1ccc(N2Cc3ncccc3C2=O)cc1 > 76.9 µM, C=CCNC(=O)c1ccc(C)c(Br)c1 > 76.9 µM, CCC(C)(C)n1nnnc1CN(Cc1ccc(Cl)cc1)Cc1ccco1, Nn1c(Cc2cccc3ccccc23)nnc1SC1CCOC1=O (centres undefined) > 76.9 µM, CCOC(=O)c1ccc(NC(=O)CCc2nc(-c3cccc(C)c3)no2)cc1 > 76.9 µM, C=CCn1c(Cc2cccs2)nnc1SCC(=O)Nc1ccc(OC)cc1 > 76.9 µM, O=C(Nc1ccccc1)N1CCSCC1 > 76.9 µM, CCn1c(SCC(=O)Nc2nc3ccc(OC)cc3s2)nc2c1c(=O)n(C)c(=O)n2C > 76.9 µM, Cc1cccc(C)c1-n1nnnc1S(=O)(=O)Cc1ccccc1Cl > 76.9 µM, COCCN1C(=O)c2oc3cc(C)c(C)cc3c(=O)c2C1c1ccc(O)cc1 (centres undefined) > 15.4 µM, O=c1c2cnn(-c3ccccc3)c2ncn1Cc1cccnc1 > 76.9 µM, CCOC(=O)C(C)c1n[nH]c(=O)c2ccccc12 (centres undefined) > 76.9 µM, OC1CCN(c2ncnc3c2nnn3Cc2c(F)cccc2Cl)CC1 > 76.9 µM, CNc1nc(SCC(=O)OC)nc(N2CCOCC2)n1 > 76.9 µM, COC(=O)C1=C(NC(=O)c2ccc(C)cc2)CCS1 > 76.9 µM, CCC(C)N(C)Cc1cccc(C2(O)CCN(S(=O)(=O)c3ccc(F)cc3)CC2)c1 (centres undefined) > 76.9 µM, COC(=O)Nc1ncc(CN2CCc3ccccc3C2)s1 > 76.9 µM, Cc1cc(S(=O)(=O)N2CCOCC2)ccc1F > 76.9 µM, CCc1nnc(NC(=O)CN2CCC(O)(c3ccccc3OC)CC2)s1 > 76.9 µM, CC1Cc2ccccc2N1C(=O)CN1CCc2ccccc2C1 (centres undefined) > 76.9 µM, CCc1nc(SCC(=O)Nc2ccnc3ccccc23)n[nH]1 > 76.9 µM, O=c1[nH]c(CSc2nnc(NCCCN3CCOCC3)s2)nc2cc(Cl)ccc12, CCCCOC(=O)n1c(SCC(=O)N(C)C)nc2ccccc21 > 76.9 µM, CC(C)N1CC(C(=O)Nc2nc3ccccc3s2)CC1=O (centres undefined) > 76.9 µM, CCn1ncc(Br)c1C(=O)Nc1nccs1 > 76.9 µM, O=C(NCC(c1cccnc1)N1CCN(c2ccc(F)cc2)CC1)c1cccc(Cl)c1 (centres undefined) > 76.9 µM, CC(C)c1ccc(-c2noc(C3CCCN(C(=O)c4ccc(F)cc4F)C3)n2)cc1 (centres undefined) > 76.9 µM, Cc1ccc(CCNC(=O)C2CCCN(S(=O)(=O)c3c(C)noc3C)C2)cc1 (centres undefined) > 76.9 µM, Cc1ccc(NC(=O)CSc2nnc(-c3ccncc3)n2N)cc1C > 76.9 µM, COc1ccc(OC)c(S(=O)(=O)Nc2ccccc2C(F)(F)F)c1 > 76.9 µM, O=S(=O)(CCSc1nc2ccccc2o1)Cc1ccccc1 > 76.9 µM, CCC1(COC(NC(=O)c2cccnc2)(C(F)(F)F)C(F)(F)F)COC1 > 76.9 µM, CCCn1c(CN(C)Cc2ccccc2)nc2c1c(=O)n(C)c(=O)n2C > 76.9 µM
